Results from PubChem BioAssay AID463173 (ICCB-Longwood Screening Facility, Harvard Medical School, 2010).
The campaign covered roughly 52,000 compounds. About 1,700 (3.3%) were called active. No stated cut-off is given here; in the data, active means survival mostly below about 52% (no sharp cut-off); inactive means mostly above about 56%. Some of the results follow.

system: Wild type; test: S. aureus survival, RN4220 and DeltatarO strains – OD600, teichoic acid synthesis inhibitors, primary screen (AID 463173); conditions: S. aureus RN4220 wild type/DeltatarO growth, OD600, 18 h, stronger effect = lower value, screened at 18.75 µg/mL (by protocol)

Compound | survival
CCOc1ccc(-n2ccnc2SCC(=O)Nc2ccc(OC)cc2OC)cc1 | inactive: 74%
Cc1ccc(Cl)cc1N1CCN(C(=O)c2cn(C)c3ccc(S(=O)(=O)N4CCCC4)cc3c2=O)CC1 | inactive: 138%
CCC1Oc2ccccc2N(CC(=O)NCc2ccc(C)cc2)C1=O (configuration not stated) | inactive: 77%
O=C(Cn1c(=O)n(-c2ccccc2)c(=O)c2c3c(sc21)CCCC3)Nc1ccc(F)cc1 | inactive: 88%
COc1ccccc1N1CCN(C(=O)c2cc3c(=O)n(Cc4cccnc4)ccc3nc2C)CC1 | inactive: 81%
Cc1ccccc1OCC(=O)Nc1nnc(S(=O)(=O)N(C)c2ccccc2)s1 | inactive: 79%
O=C(CC(=O)Nn1cnnc1)Nn1cnnc1 | inactive: 109%
COc1ccc(Br)cc1CNC(=O)c1cc2c(=O)n(C)c3ccccc3c2s1 | inactive: 84%
Cc1cccc(CCNC(=O)c2nc(-c3ccc(Cl)cc3)n3c2CCCCC3)c1 | inactive: 72%
CCN1CCN(c2ncc3c(n2)CCN(Cc2ccc(C)s2)C3)CC1 | inactive: 57%
CC(C)CC(=O)N(Cc1ccccc1)S(=O)(=O)c1ccc2c(c1)oc(=O)n2C | inactive: 110%
CCOc1ccc(C(=O)OCc2cc(=O)n3nc(C(C)C)sc3n2)cc1 | inactive: 72%
CC(=O)c1ccc(NC(=O)COc2ccccc2-c2nc(C)no2)cc1 | inactive: 109%
CCn1c2c(c(=O)n3ncc(C(=O)Nc4ccc(F)c(Cl)c4)c13)CN(Cc1ccc(OC)cc1)CC2 | active: -1%
CC(=O)c1cc(-c2ccccc2)n(CC(=O)Nc2ccc(C)cc2C)c1C | inactive: 72%
Nc1nonc1-c1nc2ccccc2n1CC(=O)Nc1ccc(F)cc1 | inactive: 135%
CC(=O)Nc1cc(C(C)(C)C)nn1C | inactive: 93%
Cc1ccc(S(=O)(=O)c2cn(CC(=O)Nc3ccccc3)c3cc4c(cc3c2=O)OCO4)cc1 | inactive: 68%
Cc1ccc(-c2nc(CS(=O)CC(=O)O)c(C)o2)cc1 (configuration not stated) | inactive: 77%

Compound | survival
CCOc1ccccc1NC(=O)NC(CC)c1c(-n2cccc2)sc2c1CCN(C)C2 (configuration not stated) | inactive: 69%
Cc1cccc(N2CCN(C(=O)c3ccc4c(c3)CCN4S(=O)(=O)c3ccccc3)CC2)c1C | inactive: 85%
CCc1ccc(Nc2nc3ccccc3c3nnc(C)n23)cc1 | inactive: 81%
CCc1ccccc1NC(=O)CSc1nccn1C | inactive: 77%
CCc1ccc(S(=O)(=O)c2nnn3c2nc(NCCC(C)C)c2cc(Cl)ccc23)cc1 | inactive: 78%
CCOC(=O)c1cc(OC(=O)c2cc(Cl)ccc2OC)n(-c2ccccc2)n1 | inactive: 77%
O=C(COc1ccc(Cl)cc1Cl)Nc1ccc(C(=O)OC2CCCCC2)cc1 | inactive: 78%
Cn1nc(C(=O)Nc2cccc(C(F)(F)F)c2)c2c1-c1ccccc1S(=O)(=O)C2 | inactive: 91%
CCCN(CCC)S(=O)(=O)c1ccc(C(=O)N2CCn3c4c(c5cc(C)ccc53)CCCC42)cc1 (configuration not stated) | inactive: 82%
CC(=O)c1ccc(OC(=O)c2c(-c3ccccc3Cl)noc2C)cc1 | inactive: 56%
COc1ccc2c(c1)c(CC(=O)Nc1cc(C)c(OC)c(C)c1)c(C)n2C(=O)c1ccc(Cl)cc1 | inactive: 87%
Cn1c(SCC(=O)Nc2ccccc2F)nc2c([nH]c3ccccc32)c1=O | inactive: 111%
COc1ccccc1Nc1ncnc2c1nc1n2CCCCC1 | inactive: 133%
CCOc1ccc(NS(=O)(=O)c2ccc3[nH]cc(C(=O)NCCc4ccccc4)c(=O)c3c2)cc1 | inactive: 63%
Cc1occc1C(=O)Nc1ccc2ccccc2c1 | inactive: 141%
Cn1c(=O)nc2n(-c3ccc(Br)cc3)c3cccc(Cl)c3cc-2c1=O | inactive: 84%
CC(C)(C)OC(=O)N1CCC(c2c(C(=O)NCc3ccccn3)cnn2-c2ccccc2Cl)CC1 | active: -6%
Cc1ccc(C)c(N2CCN(S(=O)(=O)c3ccc(C4CCCCC4)cc3)CC2)c1 | inactive: 64%
CCCc1noc(-c2ccc(NCc3ccccc3OC)c([N+](=O)[O-])c2)n1 | inactive: 79%

Compound | survival
Cc1ccc(Nc2c(-c3cccc(Cl)c3)nc3cccc(C)n23)cc1 | inactive: 22%
CCC(=O)N1c2ccccc2CC1C(=O)NCCN1CCN(c2ccccc2F)CC1 (configuration not stated) | inactive: 71%
Cc1ccc(NC(=O)CSc2nc(=O)n(CCN3CCOCC3)c3c2CCC3)cc1Cl | inactive: 66%
CCOC(=O)C1=C(C)NC(=S)NC1c1ccc(OCC(=O)N2CCCCC2)c(OC)c1 (configuration not stated) | inactive: 120%
Cc1cc(-c2ccc(C)c(S(=O)(=O)NCCc3ccccc3)c2)on1 | inactive: 71%
COc1cccc(CNC(=O)C2CCN(c3ncnc4c3nc3n4CCCCC3)CC2)c1 | inactive: 117%
O=C(Nc1cc(-c2nc3ccccc3o2)ccc1Cl)c1cc([N+](=O)[O-])ccc1N1CCOCC1 | inactive: 61%
CC(C)c1ccc(NC(=O)CSC2=Nc3ccccc3C3=NC(CC(=O)NCCc4ccccc4)C(=O)N23)cc1 (configuration not stated) | inactive: 71%
Cc1[nH]c2ccccc2c1SCCNC(=O)c1ccc(F)cc1 | inactive: 64%
CCC(=O)Nc1cccc(-c2nc3ccccc3[nH]2)c1C | inactive: 104%
COc1ccc(Cl)cc1NC(=O)c1c(NCc2cccs2)sc2c1CCC(C)C2 (configuration not stated) | inactive: 74%
CCOc1ccccc1NC(=O)CSc1nc(-c2cccs2)cc(C(F)(F)F)n1 | inactive: 83%
Cn1cc(-c2cc3n(n2)CCC(=O)N3CC(=O)NCc2ccccc2)c2ccccc21 | inactive: 73%
CCOC(=O)C1CCCN(C(=O)c2ccc(OCC)cc2)C1 (configuration not stated) | inactive: 117%
COc1ccc(N(C(=O)c2cc(OC)c(OC)c(OC)c2)S(=O)(=O)c2ccc(C)cc2)cc1 | inactive: 133%
Cc1ccccc1C(=O)Nc1ccc2nc(SCC(=O)N(C)c3ccccc3)sc2c1 | inactive: 75%
CN(C)C1(CNC(=O)COc2cccc(Cl)c2)CCCCC1 | inactive: 87%
Cc1cccc(Cn2c(SCc3ccc(C(=O)NCc4cccs4)cc3)nc3ccncc32)c1 | inactive: 84%
O=S(=O)(NCc1ccccc1Cl)c1cccc(S(=O)(=O)N2CCOCC2)c1 | inactive: 104%
